From PubChem BioAssay AID1508642 (National Center for Advancing Translational Sciences (NCATS), 2021)
The whole screen tested about 43,000 compounds, of which about 200 (0.47%) were called active. Roughly 12% stayed inconclusive and do not appear here. Calls come from the whole dose curve; as a rule, active = well fitted cell-killing curve with a large enough effect; inconclusive = small, poorly fitted or top-dose-only effect, or effect the other way; inactive = flat fitted curve, though single readings scatter. Some of the results follow.

Assay: Cell viability qHTS assay in S16 Pmp22-F2sN cells; note: nearly all actives have a fitted effect of over 65% in size
Conditions: S16 Pmp22-F2sN Schwann cells (luciferase reporters placed in the Pmp22 gene) viability, CellTiter-Glo, 24 h; series mostly up to 57.5 µM; activity change, negative = cytotoxicity: at the top concentration
Outline: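 CellTiter-Glo counter-screen, qHTS, 1536-well. Cells: S16(c9) Pmp22-F2sN, 500-1,000/well in DMEM + 10% FBS. Cpd 23 nL pin transfer, 24 h, 37C/5% CO2. Read: luminescence, CCD imager.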
% is set by controls: 0 for no effect and ±100 for the full control effect.

SMILES | activity change, negative = cytotoxicity
Cc1cc(C)cc(OCC(=O)N(Cc2ccc(C)o2)C2CCS(=O)(=O)C2)c1 (stereo not given) | inactive: -10.2%
CCC(CC)C(=O)Nc1ccc2nc(SCC(=O)N3c4ccccc4CC3C)sc2c1 (stereo not given) | inactive: -6.92%
CC(C)Oc1ccc(CNC(=O)c2ccc3nc(Cc4ccccc4)oc3c2)cc1 | inactive: -4.17%
CCOC(=O)c1c(C)sc(-c2c(-c3ccc(OC)c(F)c3)[nH]c3c2c(=O)[nH]c(=O)n3C)c1O | inactive: 32.6%
COc1ccc(Cl)cc1NC(=O)c1c(NCc2ccc(C)o2)sc2c1CCCC2 | inactive: -0.654%
COCCNC(=O)c1cc2c(Cl)nc3ccc(C)cc3c2s1 | inactive: 3.5%
Cc1ccc(CN(Cc2ccco2)C(=O)c2oc3c(C)c(C)ccc3c2C)cc1 | inactive: -0.699%
COc1cccc(N(CC(=O)N2CCC(C)CC2)S(=O)(=O)c2ccc(C)cc2)c1 | inactive: -2.49%
COc1cc(OC)c(Nc2ncnc3onc(-c4cccc(Cl)c4)c23)cc1Cl | inactive: 11.2%
CCC(C)NC(=O)CSc1nc2cc3c(cc2c(=O)n1CCCC(=O)NCc1ccc2c(c1)OCO2)OCO3 (stereo not given) | inactive: 13.5%
CC(C)c1nn2c(=O)cc(COC(=O)CNC(=O)c3ccccc3)nc2s1 | inactive: 11.2%
COc1ccc(NC(=O)Cc2csc(COc3cccc(C)c3)n2)c(OC)c1 | inactive: -3.07%
CCc1ccc(NC(=O)C(=O)NCC(c2cccnc2)N2CCOCC2)cc1 (stereo not given) | inactive: 6.6%
CCc1ccc(NC(=O)c2cc3c(=O)n(Cc4cccnc4)ccc3nc2C)cc1 | inactive: -2.62%
Cc1cccc(C(=O)Nc2cccc(OCc3cc(=O)n4c(C)csc4n3)c2)c1 | inactive: -1.17%
COc1ccc(OCC(=O)NCCS(=O)(=O)N2CCN(c3cccc(Cl)c3)CC2)cc1 | inactive: -6.79%
CCn1cc(C(=O)N(C)Cc2ccccc2)c(=O)c2cc(S(=O)(=O)N3CCCCCC3)ccc21 | inactive: 2.21%
COc1ccc(-c2noc(CCC(=O)NCc3ccc(OC)cc3OC)n2)cc1 | inactive: -22.6%
COc1ccc(Cl)cc1N(C)C(=O)C(=O)Nc1ccc2nc3n(c(=O)c2c1)CCCCC3 | inactive: 3.96%
Cc1ccc(CN(C(=O)COc2ccc(Br)cc2)c2ccccn2)o1 | inactive: 1.2%
Cc1ccc(N2CCN(C(=O)c3noc4c3COc3ccc(C)cc3-4)CC2)c(C)c1 | inactive: 3.97%
COc1ccc(NC(=O)CSc2nc(-c3ccccc3)nc3c2Cc2c(CO)cnc(C)c2O3)cc1Cl | inactive: 2.09%
Cc1ccc(C)c(N2CCN(C(=O)C(C)n3c(C)c4cnn(-c5ccccc5)c(=O)c4c3C)CC2)c1 (stereo not given) | inactive: -10.4%
Cc1ccc2oc(=O)n(CCNC(=O)Nc3ccc(C)c(F)c3)c2c1 | inactive: 0.956%

SMILES | activity change, negative = cytotoxicity
COc1ccccc1C1C=C(c2ccc(Cl)cc2)Nc2nc(-c3ccc(Cl)cc3)nn21 (stereo not given) | inactive: -15.6%
O=C(CSCc1cnn(-c2ccccc2)c1-n1cccc1)Nc1ccc(F)cc1F | inactive: 5.19%
Cc1ccc(CNC(=O)c2c(-c3cccc(Br)c3)noc2C)o1 | inactive: -5.36%
CC(Nc1ccc(-c2nc(-c3ccccn3)no2)cc1[N+](=O)[O-])c1ccccc1 (stereo not given) | inactive: 4.3%
COC(=O)c1ccc(OCC2c3cc(OC)c(OC)cc3CCN2C(=O)c2ccccc2F)cc1 (stereo not given) | inactive: 0.113%
Cc1ccc(C)c(Cn2nc(C)n3c(cc4cc(C)ccc43)c2=O)c1 | inactive: 2.54%
N#Cc1cccc(NC(=O)c2ccc3c(c2)N(Cc2cccc(Cl)c2)C(=O)c2ccccc2S3(=O)=O)c1 | inactive: -0.346%
O=C(Nc1nnc(S(=O)(=O)N2CCOCC2)s1)c1ccc(F)cc1 | inactive: 8.76%
O=C(c1ccc(F)cc1F)N1CCC(c2noc(-c3ccc(S(=O)(=O)N4CCCC4)cc3)n2)CC1 | inactive: 8.56%
CCOc1ccc(OCC)c(NC(=O)C2CCN(c3cnccn3)CC2)c1 | inactive: 2.34%
Cn1c(=O)oc2cc(S(=O)(=O)Nc3ccc(O)cc3)ccc21 | inactive: -3.15%
COc1ccc(C2NC(=O)N(C)C3=C2C(=O)N(c2ccc(C)cc2)C3)cc1 (stereo not given) | inactive: 6%
Cc1ccccc1-c1noc(-c2ccccc2OCC(=O)Nc2ccccc2[N+](=O)[O-])n1 | inactive: 2.03%
CCc1ccc(S(=O)(=O)c2nnn3c2nc(NCc2ccccc2OC)c2cc(Cl)ccc23)cc1 | inactive: -0.892%
CCc1ccc(NC(=O)CN(Cc2ccccc2)S(=O)(=O)c2ccc3nc(C)sc3c2)cc1 | inactive: -9.39%
O=C(CCn1cnc2onc(-c3ccc(F)cc3)c2c1=O)N1CCN(c2cccc(Cl)c2)CC1 | inactive: -9.88%
Cc1ccc(NC(=O)Cn2c(-c3nonc3N)nc3ccccc32)cc1Cl | inactive: -1.78%
CCOc1ccc(CNC(=O)C2Cc3cc(S(=O)(=O)N4CCCCCC4)ccc3N2C(C)=O)cc1 (stereo not given) | inactive: 11.4%
CCOc1ccc(CCNC(=O)c2ccc(C)c(-n3c(C)nc4cccnc43)c2)cc1OCC | inactive: 8.77%
Cc1ccc(CNC(=O)c2cnn3c(C)c(Cc4c(F)cccc4Cl)c(C)nc23)cc1 | inactive: 7.57%
Cc1ccc2oc3c(c(=O)c2c1)C(c1cccc(O)c1)N(CCCN1CCOCC1)C3=O (stereo not given) | inactive: -0.216%
COc1ccc(N(Cc2cccs2)C(=O)COc2ccc([N+](=O)[O-])cc2)cc1 | inactive: -9.28%
Cc1cc(Br)ccc1NC(=O)CN1C(=O)c2cccnc2Sc2ccccc21 | inactive: 0.611%
CCOc1ccc(C(=O)Nc2cc(-c3ccccc3)no2)cc1 | inactive: 2.02%

SMILES | activity change, negative = cytotoxicity
CCOc1ccccc1NC(=O)c1cc2ccc3cccnc3c2[nH]1 | inactive: 5.76%
CCN(Cc1ccccc1)C(=O)c1cc2ccc3cccnc3c2[nH]1 | inactive: -2.08%
CCOc1ccc(N(CC(=O)Nc2ccc3c(c2)OCO3)S(=O)(=O)c2ccccc2)cc1 | inactive: 8.21%
CC(C)Sc1ncc(Cl)c(C(=O)Nc2c(C(=O)Nc3ccccc3)oc3ccccc23)n1 | inactive: -1.18%
O=C1c2oc3ccccc3c(=O)c2C(c2cccc(O)c2)N1Cc1ccc(F)cc1 (stereo not given) | inactive: -2.77%
O=C(c1cc(-c2ccc(Cl)cc2)on1)N(Cc1ccc(F)cc1)Cc1ccco1 | inactive: -2.97%
Cc1nn(C)c2c1c(-c1ccccc1)cc(=O)n2Cc1c(F)cccc1Cl | inactive: 8.11%
CCc1cccc(NC(=O)c2sc3nc[nH]c(=O)c3c2C)c1 | inactive: -18.6%
CCc1ccc(NS(=O)(=O)c2ccc3[nH]cc(C(=O)N4CCCCCC4)c(=O)c3c2)cc1 | inactive: 4.71%
O=C1CN(C(=O)c2ccc(S(=O)(=O)N3CCCC3)cc2)C(c2ccc(F)cc2)c2cc(F)ccc2N1 (stereo not given) | inactive: -18.2%
CCN(c1ccccc1)S(=O)(=O)c1nnc(NC(=O)C(C)Oc2ccccc2)s1 (stereo not given) | inactive: -27.4%
CCOC(=O)Cc1ccc(NC(=O)N2CCC(CN3CCC(C)CC3)CC2)cc1 | inactive: 2.53%
COc1ccc(N(C(=O)c2ccc(C)cc2)S(=O)(=O)c2ccc(Cl)cc2)cc1 | inactive: -18.9%
CCc1ccc(NC(=O)CN(c2ccc(C)cc2)S(=O)(=O)c2c(C)nn(C)c2C)cc1 | inactive: 0.813%
COCCCNC(=O)N1CCN(c2nnc(C)c3c(C)n(-c4ccc(Cl)cc4)nc23)CC1 | inactive: 13.2%
COc1ccc(CCNC(=O)CCc2c(C)nc3c(-c4ccc(F)cc4)c(C)nn3c2C)cc1OC | inactive: 3.57%
Cc1oc2ncn(C)c(=O)c2c1C(=O)N1CCN(c2ccc(Cl)cc2)CC1 | inactive: -21.5%
COc1ccc(-c2c(C)nn3c(C(F)(F)F)cc(C)nc23)cc1OC | inactive: 2.17%
COc1cccc(CNCCCSc2nnnn2C)c1 | inactive: 4.32%
Cc1ccccc1CN1C(=O)c2ccccc2S(=O)c2ccc(C(=O)NCc3ccccc3)cc21 (stereo not given) | inactive: -10.9%
CCOc1cccc(CC(=O)N2CCc3c([nH]c4ccccc34)C2c2ccc(OC)cc2)c1OCC (stereo not given) | inactive: -7.21%
COc1ccc(Cn2c(C(=O)O)c(CNCCc3cccs3)c3ccc(OC)cc32)cc1 | inactive: 0.5%
CCCc1nn2c(=O)cc(COC(=O)c3ccccc3NC(=O)C3CCCCC3)nc2s1 | inactive: 1.81%
Cc1ccc(NC(=O)C2CCN(S(=O)(=O)c3cccs3)CC2)cc1 | inactive: -1.91%

SMILES | activity change, negative = cytotoxicity
COC(=O)c1c(C)sc(-c2c(-c3ccc(F)cc3)[nH]c3[nH]c(=O)[nH]c(=O)c23)c1O | inactive: 13.4%
COc1ccc(C(=O)NCC(c2cccnc2)N2CCN(c3ccccc3F)CC2)cc1OC (stereo not given) | inactive: -4.39%
Clc1ccc(N2CCN(Cc3nnc(-c4ccc5c(c4)OCO5)o3)CC2)cc1 | inactive: 6.43%
COc1ccc(-c2cccc(NS(=O)(=O)c3cccs3)c2)nn1 | inactive: 8.92%
CCOc1ccccc1CNC(=O)CCCn1c(=O)c2cccn2c2cccnc21 | inactive: 1.48%
Cc1ccc2oc(-c3cccc(NC(=O)c4cccc5c(Br)cccc45)c3)nc2c1 | inactive: -4.57%
Cc1ccc2onc(CC(=O)N3CCN(c4ccccc4F)CC3)c2c1 | inactive: -2.47%
CC(=O)N1c2ccccc2CC1C(=O)N1CCN(c2cccc(C)c2C)CC1 (stereo not given) | inactive: 0.553%
COc1ccc(-c2cc(C)no2)cc1S(=O)(=O)N1CCN(c2ccc(C(C)=O)cc2)CC1 | inactive: 2.35%
O=C(CCCn1c(=O)c2cccn2c2ccccc21)Nc1cccc(Cl)c1 | inactive: -1.29%
COc1ccc(NC(=O)C2=C(C)Nc3c(C(=O)Nc4ccc(C)cc4)cnn3C2c2cccc(Cl)c2)cc1 (stereo not given) | inactive: -6.72%
CCCCN(CC)C(=O)c1c[nH]c2ccc(S(=O)(=O)Nc3cccc(OC)c3)cc2c1=O | inactive: -0.772%
COc1ccc(NC(=O)CC2Nc3cccc4cccc(c34)NC2=O)cc1 (stereo not given) | inactive: -10.7%
CCOC(=O)CNC(=O)c1cc2c(=O)n(CC)c3ccccc3c2s1 | inactive: 18.6%
COC(=O)c1cc2sc(C)cc2n1Cc1ccccc1 | inactive: 6.62%
Cc1ccc(CNC(=O)CSc2ccc(-c3sc(-c4ccccc4)nc3C)nn2)cc1 | inactive: 1.24%
CCCOC(=O)c1ccc(NC(=O)Cn2nnc3sc4c(c3c2=O)CCC(C(C)(C)C)C4)cc1 (stereo not given) | inactive: 15%
COc1ccc(-c2onc(C)c2C)cc1S(=O)(=O)Nc1ccc(OC(F)(F)F)cc1 | inactive: -18.3%
Cc1ccc(CSc2oc(-c3ccco3)nc2S(=O)(=O)c2ccc(Cl)cc2)cc1 | inactive: -7.5%
CCOC(=O)c1cccc(NC(=O)c2cc(S(=O)(=O)N3CCCC3)cn2C)c1 | inactive: 0.0705%
O=C(Nc1cccc(C(F)(F)F)c1)c1cc2nc(-c3ccccc3)cc(C(F)(F)F)n2n1 | inactive: 6.21%
CCCOc1ccc(-c2cccc(NS(=O)(=O)c3cccs3)c2)nn1 | inactive: -3.14%
CCCOc1ccc(/C=C/C(=O)Nc2sc3c(c2C(=O)OCC)CCC(C)C3)cc1OC (stereo not given) | inactive: -0.969%
